# Read-outs that look alike come from different tables or passages of the source.
# T1: recombinant human β-Klotho (human, UniProt Q86Z14 53-996, limits assumed, biotinylated in the AlphaScreen assays (site not stated))
# T1 construct: also called rhβ-klotho; huβKlotho-His
# T1 sequence: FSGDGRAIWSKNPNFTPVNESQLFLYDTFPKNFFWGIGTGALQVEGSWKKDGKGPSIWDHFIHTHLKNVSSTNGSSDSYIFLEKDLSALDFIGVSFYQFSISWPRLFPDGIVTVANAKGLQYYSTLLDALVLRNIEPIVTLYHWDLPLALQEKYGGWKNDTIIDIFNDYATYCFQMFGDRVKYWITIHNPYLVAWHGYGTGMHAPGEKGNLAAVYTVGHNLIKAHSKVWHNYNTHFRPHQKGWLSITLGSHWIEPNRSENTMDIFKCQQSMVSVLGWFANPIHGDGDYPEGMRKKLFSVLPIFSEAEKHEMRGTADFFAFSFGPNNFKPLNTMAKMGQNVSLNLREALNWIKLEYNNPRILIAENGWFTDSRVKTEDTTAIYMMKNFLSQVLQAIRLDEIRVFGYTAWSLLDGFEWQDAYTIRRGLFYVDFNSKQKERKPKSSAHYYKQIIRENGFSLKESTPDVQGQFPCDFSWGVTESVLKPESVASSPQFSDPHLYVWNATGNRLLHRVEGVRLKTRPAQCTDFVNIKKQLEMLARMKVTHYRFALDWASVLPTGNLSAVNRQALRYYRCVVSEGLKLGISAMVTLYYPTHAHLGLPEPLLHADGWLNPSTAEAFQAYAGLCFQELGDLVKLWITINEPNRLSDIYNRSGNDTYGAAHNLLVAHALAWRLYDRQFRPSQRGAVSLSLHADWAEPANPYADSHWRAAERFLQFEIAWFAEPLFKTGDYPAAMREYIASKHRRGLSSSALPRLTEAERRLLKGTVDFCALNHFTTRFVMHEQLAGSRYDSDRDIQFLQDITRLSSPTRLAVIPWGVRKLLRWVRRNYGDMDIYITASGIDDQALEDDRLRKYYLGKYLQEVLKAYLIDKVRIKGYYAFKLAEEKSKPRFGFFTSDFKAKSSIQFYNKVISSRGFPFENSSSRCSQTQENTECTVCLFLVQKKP
# Key:
# [1] = molecular target: T1, recombinant human β-Klotho; experiment: phage panning
# [2] = molecular target: T1, recombinant human β-Klotho; experiment: phage panning; remark: listed apart in the source
Binder,binding result [1],binding result [2]
β-Klotho walked dimer bKWD28 (designed binder) CGANEFQCRSTGICVPVEWVCDGDNDCGDGSDEPPVCGDSHILPFSTPGPSTCQPDEFTCSSGRCIPQPWLCDGLNDCGDGSDEPPAHCSAPASEPPGSL,binds,–
β-Klotho walked dimer bKWD38 (designed binder) CAAGEFQCSSGRCLPRPWVCDGDNDCGDDSDETNCRASAHTCHSFNQFECRNGQCIPLHLVCDGVPDCGDNSDETDCGDSHILPFSTPGPST,–,binds
